# The campaign covered roughly 360,000 compounds. About 520 (0.14%) were called active. Inconclusive results, whose numbers are uncertain, are shown with a selection of clear calls. The call rests on the fitted dose curve; in most records, active means well fitted inhibition curve with a large enough effect; inconclusive means small, poorly fitted or top-dose-only effect; inactive means no such curve, though single readings can be large or run the other way. Potencies of inconclusive entries are left out as doubtful fits.
# Target: Rap guanine nucleotide exchange factor 3 (Homo sapiens) (UniProt O95398)
# Experiment: qHTS for Antagonist of cAMP-regulated guanine nucleotide exchange factor 3 (EPAC1): primary screen; further: nearly all actives have a fitted effect of over 50% in size;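 on activity change, negative = inhibition: plate controls were vehicle for no effect and positive control for full effect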
# Conditions: EPAC1 GEF assay, Rap1b-BODIPY-GDP exchange fluorescence; activity change, negative = inhibition: at 115 µM (top of the series)
# Potency means the concentration at half of the fitted maximal effect; tags describe the fitted curve by direction and shape.
# UniProt O95398, sequence (O95398 whole entry, looked up): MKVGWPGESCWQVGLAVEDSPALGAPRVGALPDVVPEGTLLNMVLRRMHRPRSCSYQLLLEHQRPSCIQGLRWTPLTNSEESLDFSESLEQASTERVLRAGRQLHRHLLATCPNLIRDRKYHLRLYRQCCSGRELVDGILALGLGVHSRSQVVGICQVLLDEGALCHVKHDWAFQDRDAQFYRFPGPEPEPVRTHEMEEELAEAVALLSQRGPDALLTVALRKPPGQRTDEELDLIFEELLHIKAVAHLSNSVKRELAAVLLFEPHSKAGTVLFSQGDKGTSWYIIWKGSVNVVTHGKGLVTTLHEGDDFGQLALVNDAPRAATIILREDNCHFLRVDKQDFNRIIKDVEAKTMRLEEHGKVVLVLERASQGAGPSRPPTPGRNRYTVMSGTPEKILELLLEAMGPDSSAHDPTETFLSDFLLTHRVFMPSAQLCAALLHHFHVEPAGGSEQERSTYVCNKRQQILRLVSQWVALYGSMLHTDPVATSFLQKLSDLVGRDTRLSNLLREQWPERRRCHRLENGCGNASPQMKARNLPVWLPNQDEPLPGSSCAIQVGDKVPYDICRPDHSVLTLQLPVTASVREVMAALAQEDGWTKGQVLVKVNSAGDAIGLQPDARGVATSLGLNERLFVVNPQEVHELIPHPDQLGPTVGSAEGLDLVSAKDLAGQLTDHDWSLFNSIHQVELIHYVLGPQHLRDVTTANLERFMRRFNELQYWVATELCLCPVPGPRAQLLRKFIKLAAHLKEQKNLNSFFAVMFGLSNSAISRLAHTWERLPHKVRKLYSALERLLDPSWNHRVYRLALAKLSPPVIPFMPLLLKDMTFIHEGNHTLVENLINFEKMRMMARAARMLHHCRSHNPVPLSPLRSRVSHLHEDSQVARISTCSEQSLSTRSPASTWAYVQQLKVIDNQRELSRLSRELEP
Compound,Potency,"activity change, negative = inhibition"
O=C(N/N=C/c1ccccc1O)NC12CC3CC(CC(C3)C1)C2,"inconclusive [inhibitor, partial curve, poor fit]",–
CCOC(=O)[C@H]1[C@H]2COc3ccc(C)cc3[C@@H]2N2C(=O)c3ccc(C)cc3NC(=O)[C@@]12C,–,inactive: 10.5%
Oc1ccc(/C=N/Nc2ccc(Cl)nn2)c(O)c1O,"inconclusive [inhibitor, full curve]",–
CCOC(=O)c1cnc2ccc(F)cc2c1Nc1ccc2c(c1)OCCO2,"inconclusive [inhibitor, partial curve, poor fit]",–
COCCOC(=O)c1c(NC(=O)CN2CCCc3ccccc32)sc(C(N)=O)c1C,–,inactive: 7.99%
O=C1C=CC(=O)N1c1cccc2cccnc12,"inconclusive [inhibitor, single point]",–
Cc1ccc(Nc2nnc(SCC(=O)c3ccc(O)cc3O)s2)cc1,–,inconclusive: -16.5% [inhibitor]
CN(C)c1cccc2c(S(=O)(=O)Nc3ccccn3)cccc12,"inconclusive [inhibitor, single point]",–
Cc1c(CCC(=O)O)c(=O)oc2cc(OCc3cccc(Cl)c3)ccc12,"inconclusive [inhibitor, single point]",–
NC(=S)N/N=C/c1ccccc1OC(=O)c1cc2ccccc2oc1=O,"inconclusive [inhibitor, single point]",–
COc1ccc(S(=O)(=O)N(CC(=O)NCc2ccccn2)c2ccc(Cl)cc2)cc1,"inconclusive [inhibitor, partial curve]",–
CC(=O)C[C@@H](O)CC(=O)[C@@H]1OC(=O)[C@H](C)CCCCc2ccccc21,"inconclusive [inhibitor, single point]",–
Cc1ccc2cc(CN(Cc3ccco3)C(=S)NCC3CCCO3)c(=O)[nH]c2c1 (stereo not drawn),"inconclusive [inhibitor, single point]",–
Fc1cccc(-n2ncc(-c3nnnn3-c3ccccc3)c2C(F)(F)F)c1,"inconclusive [inhibitor, partial curve, poor fit]",–
O=[N+]([O-])c1ccccc1OCCCn1cnc2ccccc21,–,inactive: 0.278%
Cc1[nH]c2ccccc2c1C(c1ccncc1)N1CCN(c2ccccn2)CC1 (stereo not drawn),"inconclusive [inhibitor, single point]",–
CCOCCCNC(=O)c1ccc2c(c1)N=C(CC)c1cc(Br)ccc1S2,"inconclusive [inhibitor, single point]",–
Nc1nc2nc[nH]c2c(=O)[nH]1,–,inactive: -14.6%
CN(C)c1ccc(/C=C/c2ccc3c4ccccc4ccc3[n+]2-c2ccccc2)cc1,"inconclusive [inhibitor, single point]",–
N#C/C(=C/c1ccc(OC(=O)c2ccc(Br)s2)cc1)c1nc2ccccc2[nH]1,–,inconclusive: -11% [inhibitor]
CC1Sc2ccc(S(=O)(=O)N3CCC(C(=O)NCc4ccc(Cl)cc4)CC3)cc2NC1=O (stereo not drawn),"inconclusive [inhibitor, partial curve]",–
Cc1cccc(NC(=O)c2ccc(NC(=O)c3ccccc3Br)cc2)c1,"inconclusive [inhibitor, single point]",–

Compound,Potency,"activity change, negative = inhibition"
COc1cccc(C(=O)NCCCNC(=O)c2ccco2)c1,–,inactive: 28.5%
CN1CCC2(CC1)C1CN(C)CC=C1C(C#N)=C(N)C2(C#N)C#N (stereo not drawn),inactive,–
Cc1ccccc1CS(=O)(=O)Cc1ccc(C(=O)NCCc2ccccc2)o1,–,inactive: 12.2%
CC(Oc1ccccc1)C(=O)Nc1nnc(S(=O)(=O)N2CCCCC2)s1 (stereo not drawn),"inconclusive [inhibitor, partial curve, poor fit]",–
Cc1cc2nc3ccc(=[N+](C)C)cc-3sc2cc1N,–,inactive: 10.1%
CCCCS(=O)(=O)Nc1ccc2cn[nH]c2c1,–,inactive: -0.441%
Cc1nnc(NC(=O)c2nc(S(=O)(=O)Cc3ccccc3)ncc2Cl)s1,"inconclusive [inhibitor, partial curve]",–
CCOC(=O)c1ccccc1Nc1cn(C(C)=O)c2ccccc12,"inconclusive [inhibitor, partial curve]",–
Cc1cccc(-c2n[nH]c(=S)n2/N=C/C=C/c2ccco2)c1,"inconclusive [inhibitor, single point]",–
COC(=O)c1sccc1NC(=O)CN1CCN(c2ccc(F)cc2)CC1,"inconclusive [inhibitor, single point]",–
Cc1ccc(C)c(OC(=O)C2CSC3(C)CCC(=O)N23)c1C (stereo not drawn),"inconclusive [inhibitor, full curve]",–
O=C(NCCF)C1Nc2ccc(OC(F)(F)F)cc2C2C=CCC12 (stereo not drawn),"inconclusive [inhibitor, partial curve]",–
C=CCNC(=S)NNc1nc2c(c(=O)[nH]1)C1(CCCCC1)Cc1ccccc1-2,"inconclusive [inhibitor, partial curve, poor fit]",–
CCC(C)(C)NC(=O)C1CC(=O)N(CCc2ccc(F)cc2)C1 (stereo not drawn),–,inactive: 1.62%
C=CCn1c(Cc2cccs2)nnc1SCC(=O)c1ccc2ccccc2c1,"inconclusive [inhibitor, single point]",–
CC(=O)c1c(O)c(C)c(O)c2c1OC1=CC(=O)C(C(C)=O)C(=O)[C@@]12C (stereo partly drawn),"inconclusive [inhibitor, partial curve, poor fit]",–
COc1ccc(CCNC(=O)CCS(=O)(=O)c2ccc3c(c2)NC(=O)CO3)cc1OC,–,inconclusive: -16.1% [inhibitor]
COc1cc(/C=C/C(=O)OCC(=O)NCCN2C(=O)CSC2=O)ccc1OC(F)F,"inconclusive [inhibitor, single point]",–
CSc1nc(O)c(C(c2ccc(F)cc2)c2c(O)nc(SC)[nH]c2=O)c(=O)[nH]1,–,inactive: 4.88%
COc1ccc(Cl)cc1NC(=O)COC(=O)c1ccc(C)o1,"inconclusive [inhibitor, single point]",–
CCOC(=O)C1=CCN(S(=O)(=O)c2ccc(Br)cc2)C1c1cccc(C)c1 (stereo not drawn),–,inactive: -16.1%
